Reference: paper PMC4336329 (PLoS ONE, 2015)
Hit rate of the full screen: of about 310,000 compounds, about 2,200 (0.71%) showed an effect of 50% or more. The effect is printed as a negative number. Some of the results follow.

Target: human ether-à-go-go-related gene (hERG) potassium channel (human, UniProt Q12809)
Assay: primary screen, population patch clamp on CHO cells stably expressing hERG

human ether-à-go-go-related gene (hERG) potassium channel, sequence (Q12809 whole entry, looked up): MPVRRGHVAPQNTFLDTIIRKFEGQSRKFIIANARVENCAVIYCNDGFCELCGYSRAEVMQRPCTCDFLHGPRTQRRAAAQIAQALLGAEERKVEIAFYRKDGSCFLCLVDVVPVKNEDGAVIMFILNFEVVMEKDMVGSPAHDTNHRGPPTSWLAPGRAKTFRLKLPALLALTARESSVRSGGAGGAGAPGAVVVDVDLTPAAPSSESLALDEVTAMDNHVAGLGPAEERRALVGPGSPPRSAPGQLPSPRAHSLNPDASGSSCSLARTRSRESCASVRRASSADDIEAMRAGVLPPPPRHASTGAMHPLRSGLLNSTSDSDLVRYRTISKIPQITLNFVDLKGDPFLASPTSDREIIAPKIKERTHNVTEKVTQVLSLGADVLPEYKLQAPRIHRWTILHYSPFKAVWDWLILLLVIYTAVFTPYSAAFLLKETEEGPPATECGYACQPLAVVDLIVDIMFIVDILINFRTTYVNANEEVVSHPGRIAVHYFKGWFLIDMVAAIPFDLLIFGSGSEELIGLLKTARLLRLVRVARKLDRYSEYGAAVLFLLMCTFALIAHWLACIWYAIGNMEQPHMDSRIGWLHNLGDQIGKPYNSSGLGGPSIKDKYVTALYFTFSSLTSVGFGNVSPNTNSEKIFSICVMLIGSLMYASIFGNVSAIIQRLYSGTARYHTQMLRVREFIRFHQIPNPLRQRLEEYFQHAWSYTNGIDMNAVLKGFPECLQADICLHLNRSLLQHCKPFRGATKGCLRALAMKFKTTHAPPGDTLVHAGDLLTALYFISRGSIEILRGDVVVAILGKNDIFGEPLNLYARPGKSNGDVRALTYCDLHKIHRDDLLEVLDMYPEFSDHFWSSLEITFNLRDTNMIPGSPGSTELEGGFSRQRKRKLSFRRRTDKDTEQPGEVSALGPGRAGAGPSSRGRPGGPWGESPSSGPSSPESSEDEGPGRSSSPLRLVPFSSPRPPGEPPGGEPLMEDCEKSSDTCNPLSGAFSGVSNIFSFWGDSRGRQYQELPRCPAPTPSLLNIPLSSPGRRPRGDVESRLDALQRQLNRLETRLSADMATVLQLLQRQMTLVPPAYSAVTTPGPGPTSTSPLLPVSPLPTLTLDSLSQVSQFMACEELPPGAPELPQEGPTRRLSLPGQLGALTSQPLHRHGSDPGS

SMILES | hERG current change (%, negative = inhibition) at 1uM
O=C(c1ccc([N+](=O)[O-])cc1)N(Cc1cccs1)C1CCS(=O)(=O)C1 (stereo not drawn) | -5.4%
COc1ccc(C(=O)NC(=S)Nc2cccnc2)cc1[N+](=O)[O-] | 5.33%
O=C(O)c1ccc2c(c1)C(=O)N(Cc1ccco1)C2=O | 17.2%
C[C@@H]1CC=C[C@H]2[C@H]1C(=O)N(Cc1ccccc1)[C@H]2c1ccoc1 | 17.3%
CCc1ccc(OCc2nnc(NC(=O)c3cccs3)s2)cc1 | 9.92%
COc1ccc(OC)c(C(=O)N/N=C/c2ccccn2)c1 | 13.9%
O=C(CN1CCCC1)NN=C(c1ccccc1)c1ccccc1 | -49%
N#C/C(C(=O)N1CCOCC1)=C1/SC(Cc2ccccc2Cl)C(=O)N1c1ccccc1 (stereo not drawn) | -6.25%
COc1ccc(S(=O)CC(=O)Nc2ccc(Cl)cc2Cl)cc1 (stereo not drawn) | 10%
CN(CC1CCOCC1)C(=O)CC1C(=O)NCCN1Cc1cccc(F)c1 (stereo not drawn) | 13.9%
O=C(OC(C(=O)NC1CCCC1)c1ccncc1)C1=Cc2ccccc2OC1 (stereo not drawn) | 11.4%
CC(C)OC(=O)/C(C#N)=C/c1cn(C)c2ccccc12 | 12.5%
CCOC(=O)Cn1c(C)c(C#N)c2ccccc21 | 8.11%
COc1ccccc1Nc1nc(C)nc2c1oc1ccccc12.Cl | 15.3%
Cc1cc(Nc2ccc(C(=O)O)cc2)n2nc(C)nc2n1 | -0.965%
CCCc1c(C(=O)Nc2ccc(F)cc2)cnn1-c1ccccc1 | 11.2%
CC(=O)NCCNc1ccc([N+](=O)[O-])cc1C#N | 8.02%
COc1ccc(-c2csc(/C(C#N)=C(\O)CSc3nccn3C)n2)cc1OC | -7.27%
O=C(CN1C(=O)c2ccccc2C1=O)NCC(=O)OCC(=O)c1cccc([N+](=O)[O-])c1 | 10.3%
Cc1ccc([N+](=O)[O-])cc1N=Nc1c(C)[nH]n(C(N)=S)c1=O | 10.4%
Cc1ccccc1CC(=O)N1CCCC(CCC(=O)N2CCN(c3ccccn3)CC2)C1 (stereo not drawn) | 5.66%
O=C(c1cc2ccccc2oc1=O)N1CCN(c2ncccn2)CC1 | 13.1%

SMILES | hERG current change (%, negative = inhibition) at 1uM
O=C(CSC1CC(=O)N(c2ccc(C(=O)O)cc2)C1=O)Nc1ccc2ccccc2c1 (stereo not drawn) | 11.2%
COC(=O)C1CCN(c2nc3ccccc3nc2C(C#N)C(=O)NCCc2ccccc2)CC1 (stereo not drawn) | 8.06%
O=C(O)C1CCN(S(=O)(=O)c2cccs2)CC1 | 10.9%
CCCCOc1cccc(-c2nnc(NC(=O)CSc3ccc(C)cc3)s2)c1 | -2.82%
Cc1ccc(C(=O)Nc2nc3ccccc3n3nnnc23)cc1 | -16.1%
Cc1ccc(SCc2cc(=O)c3c(=O)n(-c4ccccc4)[nH]c3[nH]2)cc1 | 9.44%
Cc1ccc(S(=O)(=O)N2CN(CC3CCCO3)c3nc4ccccc4nc32)c(C)c1 (stereo not drawn) | 14.6%
COc1ccc(N(CC(=O)NC2CC3CCC2C3)S(=O)(=O)c2ccccc2)cc1Cl (stereo not drawn) | -5.26%
CCn1c(=O)c(=O)n(CC)c2cc(S(=O)(=O)Nc3cc(C)ccc3C)ccc21 | -7.63%
COc1ccccc1-c1nc(C#N)c(NCc2ccc(F)cc2)o1 | -0.0431%
O=C(c1csc2c1CCCCC2)N1CCN(c2ncccn2)CC1 | 4.87%
CCC1S/C(=N/N=C/c2ccco2)N(c2ccc(F)cc2)C1=O (stereo not drawn) | 6.62%
COc1ccc(OC)c(N2Cc3cc(C)c(C)cc3C2)c1 | 5.02%
Cc1cccc(-c2cc(C(=O)Nc3sc(C)c(C)c3C(N)=O)c3ccccc3n2)c1 | 13.8%
CCc1ccccc1Oc1coc2cc(O)ccc2c1=O | 13.9%
Cc1cccc(C)c1Nc1c(-c2ccccc2O)nc2ncccn12 | 5.97%
CC(Sc1nnc(-c2ccco2)n1C)C(=O)N(C)C1CCCCC1 (stereo not drawn) | 14.6%
CCc1ccccc1N1C(=O)C2CC=CCC2C1=O (stereo not drawn) | -2.54%
O=C(Nc1ccc(Br)cc1)c1cccn1-c1ncc(C(F)(F)F)cc1Cl | 4.14%
CC(C)CN(C(=O)CN(C)C(=O)c1ccco1)c1c(N)n(CC(C)C)c(=O)[nH]c1=O | 15.6%
COc1ccccc1CN1CC(C(=O)N2CCC(C(=O)c3ccccc3)CC2)CCC1=O (stereo not drawn) | 2.78%
CC(C)c1ccc(NC2CCCN(C(=O)c3ccnc(Cl)c3)C2)cc1 (stereo not drawn) | 14.4%

SMILES | hERG current change (%, negative = inhibition) at 1uM
CC(C)N1C(=O)CC2(CC[N+](C)(CCOC(=O)C(c3ccccc3)c3ccccc3)CC2)C1=O.[I-] (stereo not drawn) | 10.7%
CCCCc1nc2cc(C(=O)N3CCCC(COC)C3)ccc2o1 (stereo not drawn) | 4.55%
O=C(Cn1nnc(-c2ccccc2NC(=O)c2ccccc2)n1)Nc1ccc2c(c1)OCCO2 | 4.35%
Cc1nn(C)cc1/C=N/NC(=S)Nc1ccc(Cl)cc1Cl | 12.2%
COc1cccc(CNC(=O)COc2cc(O)c3c(c2)OC(C)(C)CC3=O)c1 | 7.66%
CSc1ccccc1C(=O)Nc1cc(C)ccc1C | 0.653%
O=C(Nc1ccc(F)cc1F)c1csc(-c2ccncc2)n1 | 4.74%
O=C(NCc1cccnc1)C1CCCN(S(=O)(=O)c2ccc(Cl)cc2)C1 (stereo not drawn) | -4.82%
CN1CCN(c2ccc(S(=O)(=O)N3CCOCC3)cc2NC(=O)CC(C)(C)C)CC1 | 13.2%
NNC(=O)c1cccc(COCC(F)(F)C(F)F)c1 | 2.44%
Cc1ccsc1CN1CC(=O)N(c2c(C)cccc2C)C1=S | 6.37%
CNc1c([N+](=O)[O-])cnn1-c1ccccc1F | 15.3%
Cl.N=c1ccn2c(n1)O[C@H]1[C@H](O)[C@@H](CO)O[C@H]12 | 15.1%
N#CC1=C2N=C(N)c3ccccc3N2C2=C(C(=O)CCC2)C1c1ccccc1F (stereo not drawn) | 7.74%
Cc1ccc(NC(=O)CC2SC(=NC3CCCCC3)NC2=O)cc1 (stereo not drawn) | 0.278%
Cc1nn(Cc2c(F)c(F)c(F)c(F)c2F)c(C)c1NC(=O)c1ccc(COc2ccc(F)cc2)o1 | 3.61%
O=c1[nH]c(=S)[nH]c2c1CN(Cc1ccc(F)cc1)CC2 | 11.2%
O=C(COc1ccccc1)N/N=C/c1sc(=O)n(Cc2cccc(C(=O)O)c2)c1Cl | 11.1%
NS(=O)(=O)c1ccc(-n2nncc2-c2ccco2)cc1 | 14.4%
CCOC(=O)C(C)Oc1cccc2c(=O)n(CC(=O)Nc3ccc4c(c3)OCCO4)ccc12 (stereo not drawn) | 12.4%
CCOC(=O)c1nn(-c2ccccc2)c(=O)c(C#N)c1C | 9.51%
COc1ccc(-n2ncc3c(N4CCN(c5cc(C)ccc5C)CC4)ncnc32)cc1 | 9.42%

SMILES | hERG current change (%, negative = inhibition) at 1uM
CCN(CC)C(=O)CSc1nnnn1-c1ccc(F)c(Cl)c1 | -6.84%
O=C(CNC(=O)c1ccccc1)N/N=C/c1ccccc1Cl | 8.46%
O=C(CCN1CCN(S(=O)(=O)c2cccc([N+](=O)[O-])c2)CC1)Nc1ccccc1F | 16.8%
NC(N)=NCc1cccc(I)c1.O=S(=O)(O)O | 14.5%
CCNS(=O)(=O)c1ccc2c3c(cccc13)C(=O)N2 | 7.71%
CC(C)(C)OC(=O)N1CCC(NC(=O)c2ncn(Cc3ccccc3)c2C(=O)NC2CCN(C(=O)OC(C)(C)C)CC2)CC1 | 10.5%
Cc1ncc(S(=O)(=O)c2ccc(Cl)cc2)c(N)n1 | 11.7%
CCC(Sc1nc2c(c(=O)n1CC)SC(C)C2)C(=O)OC (stereo not drawn) | 12.1%
Fc1ccccc1Cc1noc(CN2CCCC(CN3CCOCC3)C2)n1 (stereo not drawn) | 5.99%
Cc1ccc(S(=O)(=O)N2CCC(C(=O)N/N=C/c3ccccc3[N+](=O)[O-])CC2)cc1 | 13.4%
CCC1SC(CC)C(=O)N(CC(=O)NCCc2ccccc2)C1=O (stereo not drawn) | 3.16%
CCOc1ccccc1N1CCN(C(=O)CNC(=O)c2ccc(OC)c(OC)c2)CC1 | 9.95%
O=[N+]([O-])c1ccc2cn(-c3ccccc3)nc2c1 | -2.39%
Cc1c(C)n(CCN(C)C)c2ncnc(NCc3ccccc3)c12 | -5.98%
CCN(CC)C(=O)CSC(Nc1ccc(F)cc1)=C(C#N)C#N | 10.4%
Cc1ccc(NC(=O)Cn2c(=O)oc3ccccc32)cc1C | 16.8%
O=C(C1CC1)N1CCc2cc(Br)cc(S(=O)(=O)N3CCN(c4ccccn4)CC3)c21 | 6.85%
Cc1ccnc(NC(=O)C(Cc2ccccc2)NC(=O)c2ccccc2)c1 (stereo not drawn) | 7.92%
COC(=O)CNC(=O)c1cc(-c2ccncc2)nc2ccc(C)cc12 | 5.69%
COc1ccc(Nc2nccc(-c3ccc(C#N)cc3)n2)cc1 | 1.09%
C=CCC1(O)C(=O)N2C(=C1C(=O)N1CCOCC1)c1ccccc1CC2(C)C (stereo not drawn) | 5.55%
